Reference: article PMC11995724, “Antibiotic target discovery by integrated phenotypic and activity-based profiling of electrophilic fragments” (Cell chemical biology, 2025)
The whole screen tested about 3,200 compounds, of which about 75 (2%) showed an effect of 50% or more. The list shows a part of the results.

System: T1, S. aureus MSSA476
T1 construct: MSSA476
Parameters: species or system S. aureus MSSA476 (TSB) or V. cholerae SAD30 (LB); 384-well bacterial growth screen at 25 uM, OD600 relative to DMSO control
Conditions: relative growth, OD600, TSB; 25 µM; inhibitor

Row | Structure (SMILES) | % of control remaining [%]
1 | C=CC(=O)NCc1ccnn1C1CCCC1 [3-H21, N-[(1-cyclopentyl-1H-pyrazol-5-yl)methyl]prop-2-enamide] | 99.6082
2 | C=CC(=O)NCc1ccc(-n2ccc(C3CC3)n2)cc1 [2-B03, N-{[4-(3-cyclopropyl-1H-pyrazol-1-yl)phenyl]methyl}prop-2-enamide] | 116.275
3 | C=CC(=O)NCc1cccc(N2C(=O)NC3(CCCC3)C2=O)c1 [2-M11, N-[(3-{2,4-dioxo-1,3-diazaspiro[4.4]nonan-3-yl}phenyl)methyl]prop-2-enamide] | 92.9504
4 | COc1cc([N+](=O)[O-])ccc1NC(=O)C(C)Cl (stereo not drawn) [4-K12, 2-chloro-N-(2-methoxy-4-nitrophenyl)propanamide] | 98.7137
5 | C=CC(=O)N1CSCC1C(=O)NCC1CC1 (stereo not drawn) [1-P17, N-(cyclopropylmethyl)-3-(prop-2-enoyl)-1,3-thiazolidine-4-carboxamide] | 104.44
6 | CC(Cl)C(=O)Nc1cc(C(F)(F)F)ccc1Cl (stereo not drawn) [4-N15, 2-chloro-N-[2-chloro-5-(trifluoromethyl)phenyl]propanamide] | 97.9514
7 | CC(Cl)C(=O)N1CCCCC1c1nc(-c2ncccn2)no1 (stereo not drawn) [7-D15, 2-chloro-1-{2-[3-(pyrimidin-2-yl)-1,2,4-oxadiazol-5-yl]piperidin-1-yl}propan-1-one] | 96.0754
8 | C=CC(=O)NCc1ccc(C(=O)NC2CC(=O)N(C)C2)cc1 (stereo not drawn) [3-N22, N-(1-methyl-5-oxopyrrolidin-3-yl)-4-[(prop-2-enamido)methyl]benzamide] | 119.46
9 | N#CC(C(=O)CCl)=C1NC(=O)c2ccccc2N1 [10-P14, 4-chloro-3-oxo-2-(4-oxo-1,2,3,4-tetrahydroquinazolin-2-ylidene)butanenitrile] | 93.75
10 | Cc1nc2ccccc2n(CCCN(C)C(=O)CCl)c1=O [6-D04, 2-chloro-N-methyl-N-[3-(3-methyl-2-oxo-1,2-dihydroquinoxalin-1-yl)propyl]acetamide] | 74.0976
11 | COc1cc(C=C(C#N)C(=O)Nc2nccs2)cc(OC)c1 [9-J03, 2-cyano-3-(3,5-dimethoxyphenyl)-N-(1,3-thiazol-2-yl)prop-2-enamide] | 113.258
12 | C=CC(=O)N1CCn2nccc21 [1-P16, 1-{1H,2H,3H-pyrazolo[1,5-a]imidazol-1-yl}prop-2-en-1-one] | 105.143
13 | CCC(C)C1CN(Cc2ccc(C)nc2)CCN1C(=O)C(C)Cl (stereo not drawn) [7-O16, 1-[2-(butan-2-yl)-4-[(6-methylpyridin-3-yl)methyl]piperazin-1-yl]-2-chloropropan-1-one] | 92.9356
14 | COC1(OC)CCOCC1NC(=O)CCl (stereo not drawn) [7-D10, 2-chloro-N-(4,4-dimethoxyoxan-3-yl)acetamide] | 88.854
15 | COc1ccc(CN(C)C(=O)CCl)cc1F [4-F03, 2-chloro-N-[(3-fluoro-4-methoxyphenyl)methyl]-N-methylacetamide] | 99.0948
16 | C=CC(=O)N1CCCn2cccc2C12CCOCC2 [1-A22, 1-{2',3',4',5'-tetrahydrospiro[oxane-4,1'-pyrrolo[1,2-a][1,4]diazepin]-2'-yl}prop-2-en-1-one] | 119.912
17 | C=CC(=O)Nc1cccc(NS(=O)(=O)C2CC2)c1 [3-D16, N-(3-cyclopropanesulfonamidophenyl)prop-2-enamide] | 105.529
18 | CC(Cl)C(=O)NC1CCCCC1n1cccn1 (stereo not drawn) [7-F17, 2-chloro-N-[2-(1H-pyrazol-1-yl)cyclohexyl]propanamide] | 96.7033
19 | CC(Cl)C(=O)N1C2CCC1CC(c1ccnn1C)C2 (stereo not drawn) [7-O15, 2-chloro-1-[3-(1-methyl-1H-pyrazol-5-yl)-8-azabicyclo[3.2.1]octan-8-yl]propan-1-one] | 104.239
20 | CSc1cccc(NC(=O)CCl)c1 [4-H10, 2-chloro-N-[3-(methylsulfanyl)phenyl]acetamide] | 113.959
21 | C=CC(=O)N1CCC(c2nc(C(=O)O)co2)CC1 [2-K03, 2-[1-(prop-2-enoyl)piperidin-4-yl]-1,3-oxazole-4-carboxylic acid] | 134.726
22 | O=C1CCCc2cc(C(=O)CCl)ccc2N1 [10-M20, 7-(2-chloroacetyl)-2,3,4,5-tetrahydro-1H-1-benzazepin-2-one] | 137.5
23 | COc1ccc(NC(=O)CCl)c([N+](=O)[O-])c1 [4-I21, 2-chloro-N-(4-methoxy-2-nitrophenyl)acetamide] | 105.193

Row | Structure (SMILES) | % of control remaining [%]
24 | N#CC(=Cc1cccc(F)c1)C(=O)Nc1cc(Cl)ccc1Cl [9-P03, 2-cyano-N-(2,5-dichlorophenyl)-3-(3-fluorophenyl)prop-2-enamide] | 107.865
25 | N#Cc1c(NC(=O)CCl)oc(-c2ccco2)c1-c1ccco1 [5-D10, 2-chloro-N-[4'-cyano-2'-(furan-2-yl)-[2,3'-bifuran]-5'-yl]acetamide] | 66.6667
26 | CC(Cl)C(=O)Nc1cccc(C#N)c1 (stereo not drawn) [5-B10, 2-chloro-N-(3-cyanophenyl)propanamide] | 87.0674
27 | O=C(CCl)Nc1ccc2oc3ccccc3c2c1 [6-N06, 2-chloro-N-{8-oxatricyclo[7.4.0.0,2,7]trideca-1(9),2(7),3,5,10,12-hexaen-4-yl}acetamide] | 127.024
28 | CC(Cl)C(=O)Nc1ccc(C2CC(=O)NC(=O)N2)cc1 (stereo not drawn) [5-D19, 2-chloro-N-[4-(2,6-dioxo-1,3-diazinan-4-yl)phenyl]propanamide] | 126.412
29 | C=CC(=O)N1CCC(c2ccc(OC)cc2)C1 (stereo not drawn) [1-N16, 1-[3-(4-methoxyphenyl)pyrrolidin-1-yl]prop-2-en-1-one] | 116.044
30 | Cn1ncc2ccc(CNC(=O)N3CCSSCC3)cc21 [10-A20, N-[(1-methyl-1H-indazol-6-yl)methyl]-1,2,5-dithiazepane-5-carboxamide] | 123.125
31 | C=CC(=O)NC(c1nc(C)cs1)C1CC1 (stereo not drawn) [3-D21, N-[cyclopropyl(4-methyl-1,3-thiazol-2-yl)methyl]prop-2-enamide] | 129.56
32 | Cc1ccc(CNC(=O)c2ccccc2NC(=O)CCl)cc1 [4-H21, 2-(2-chloroacetamido)-N-[(4-methylphenyl)methyl]benzamide] | 87.6608
33 | CNC(=O)Cn1ccc2ccc(NC(=O)C(C#N)=Cc3ccco3)cc21 [9-F18, 2-cyano-3-(furan-2-yl)-N-{1-[(methylcarbamoyl)methyl]-1H-indol-6-yl}prop-2-enamide] | 95.5805
34 | CC(=O)Nc1ccc(C=C(C#N)C(=O)NC2CCCCC2)cc1 [8-N16, 2-cyano-N-cyclohexyl-3-(4-acetamidophenyl)prop-2-enamide] | 93.61
35 | N#CC(=Cc1ccc(SC(F)(F)F)cc1)C(=O)NC1CC1 [9-C14, 2-cyano-N-cyclopropyl-3-{4-[(trifluoromethyl)sulfanyl]phenyl}prop-2-enamide] | 89.2884
36 | O=C(CCl)NCCSc1ccc(Cl)cc1 [4-H17, 2-chloro-N-{2-[(4-chlorophenyl)sulfanyl]ethyl}acetamide] | 87.2797
37 | O=C(CCl)N1CCSc2c([nH]c3ccccc23)C1 [6-F08, 2-chloro-1-{2H,3H,4H,5H,6H-[1,4]thiazepino[6,7-b]indol-4-yl}ethan-1-one] | 89.8049
38 | C=CC(=O)N(C)Cc1cc2sccc2n1C [2-B19, N-methyl-N-({4-methyl-4H-thieno[3,2-b]pyrrol-5-yl}methyl)prop-2-enamide] | 115.579
39 | CC(Cl)C(=O)N1CCCC1c1nc(-c2ccccc2)c(C(C)C)o1 (stereo not drawn) [7-H11, 2-chloro-1-{2-[4-phenyl-5-(propan-2-yl)-1,3-oxazol-2-yl]pyrrolidin-1-yl}propan-1-one] | 101.413
40 | O=C(CCl)Nc1ccc(Oc2ccccc2)cc1 [4-J09, 2-chloro-N-(4-phenoxyphenyl)acetamide] | 73.5588
41 | O=C(CCl)N(Cc1ccc(Cl)cc1)C12CC3CC(CC(C3)C1)C2 [4-H07, N-(adamantan-1-yl)-2-chloro-N-[(4-chlorophenyl)methyl]acetamide] | 93.7589
42 | COC(=O)C(C(=O)CCl)=C1Nc2ccccc2N1 [10-G12, methyl 4-chloro-2-(2,3-dihydro-1H-1,3-benzodiazol-2-ylidene)-3-oxobutanoate] | 93.125
43 | C=CC(=O)N(Cc1noc2c1CCCC2)CC1CCCC1 [1-H13, N-(cyclopentylmethyl)-N-[(4,5,6,7-tetrahydro-1,2-benzoxazol-3-yl)methyl]prop-2-enamide] | 137.846
44 | CC(=O)NCCc1ccc(C(=O)C(C)Cl)cc1 (stereo not drawn) [10-B03, N-{2-[4-(2-chloropropanoyl)phenyl]ethyl}acetamide] | 121.25
45 | C=CC(=O)N1CCC(C(=O)N2CCCC(NC(=O)C(C)(C)C)C2)CC1 (stereo not drawn) [2-F05, 2,2-dimethyl-N-{1-[1-(prop-2-enoyl)piperidine-4-carbonyl]piperidin-3-yl}propanamide] | 112.097
